# Patent US12203089B2, “Plants having increased tolerance to herbicides” (BASF SE, priority 2015, dated 2025)
# Further values from the same series stand in other lists.
# Key:
# Type in all cases: in vivo
# Settings in all cases: 7 days after treatment
# [1] = test system: Brassica napus expressing BnaA01g04600D (SEQ ID 21) variant G1012R; experiment: 6-well plate injury test, T1 seeds on vermiculite
# Description: (§1) Transgenic Brassica napus plants are assayed for improved tolerance to azine herbicides like e. g. 6-cyclopentyl-N4-(2,3,4,5,6-pentafluorophenyl)-1,3,5-triazine-2,4-diamine in 6-well plates. Therefore, 5-6 T1 seeds are sown on vermiculite and watered with half-strength murashige skoog nutrient solution, pH 5.8 (Murashige and Skoog (1962) Physiologia Plantarum 15: 473-497). Compounds are dissolved in dimethylsulfoxid (DMSO) and added to the medium (final DMSO concentration 0.1%). Multi well plates are incubated in a growth chamber at 22° C., 75% relative humidity and 110 μmol Phot*m^−2*s^−1 with 14: 10 h light: dark photoperiod. Growth inhibition is evaluated seven to ten days after seeding in comparison to wild type plants. Plant injury is rated on a scale of 0% to 100%, 0% being no injury and 100% being complete death.
# [2] = test system: Brassica napus expressing BnaA03g52020D (SEQ ID 15) variant G1015R; experiment: 6-well plate injury test, T1 seeds on vermiculite
# Description: as §1
# [3] = test system: Brassica napus wildtype; experiment: 6-well plate injury test, seeds on vermiculite
# Description: as §1
# [4] = test system: Brassica napus expressing BnaAnng01240D (SEQ ID 20) variant S1041L; experiment: Greenhouse herbicide tolerance, post emergent
# Description: (§2) T1/T2 transgenic plants of Brassica napus containing cellulose synthase sequences or mutated gene variants thereof are tested for improved tolerance to herbicides in greenhouse studies with azine herbicides. For the pre-emergence treatment, the herbicides are applied directly after sowing by means of finely distributing nozzles. The containers are irrigated gently to promote germination and growth and subsequently covered with transparent plastic hoods until the plants have rooted. This cover causes uniform germination of the test plants, unless this has been impaired by the herbicides. For post emergence treatment, the test plants are first grown to a height of 3 to 15 cm, depending on the plant habit, and only then treated with the herbicides. For this purpose, the test plants are either sown directly, and grown in the same containers or they are first grown separately and transplanted into the test containers a few days prior to treatment.
# (§3) Herbicide injury evaluations are taken at 1, 2 and 3 weeks after treatment. Plant biomass reduction is rated on a scale of 0% to 100%, 0% being no reduction of biomass compared to untreated control, and 100% being complete absence of biomass.
# [5] = test system: Brassica napus expressing BnaA01g04600D (SEQ ID 21) variant G1012R; experiment: Greenhouse herbicide tolerance, pre emergent
# Description: as §2, §3
# [6] = test system: Brassica napus wildtype; experiment: Greenhouse herbicide tolerance, pre emergent
# Description: as §2, §3
structure (smiles),measurement,setting,value
"Nc1nc(Nc2c(F)c(F)c(F)c(F)c2F)nc(C2CCCC2)n1 [6-cyclopentyl-N4-(2,3,4,5,6-pentafluorophenyl)-1,3,5-triazine-2,4-diamine]",average phytotox value,"[1]; BnaA01g04600D G1012R event 1, 5*10^-8M",30%
same,average phytotox value,"[1]; BnaA01g04600D G1012R event 1, 10^-6M",80%
same,average phytotox value,"[1]; BnaA01g04600D G1012R event 1, 10^-7M",50%
same,average phytotox value,"[1]; BnaA01g04600D G1012R event 1, 10^-8M",10%
same,average phytotox value,"[1]; BnaA01g04600D G1012R event 1, 10^-9M",0%
same,average phytotox value,"[1]; BnaA01g04600D G1012R event 2, 5*10^-8M",40%
same,average phytotox value,"[1]; BnaA01g04600D G1012R event 2, 10^-6M",85%
same,average phytotox value,"[1]; BnaA01g04600D G1012R event 2, 10^-7M",70%
same,average phytotox value,"[1]; BnaA01g04600D G1012R event 2, 10^-8M",10%
same,average phytotox value,"[1]; BnaA01g04600D G1012R event 2, 10^-9M",0%
same,average phytotox value,"[1]; BnaA01g04600D G1012R event 3, 5*10^-8M",50%
same,average phytotox value,"[1]; BnaA01g04600D G1012R event 3, 10^-6M",85%
same,average phytotox value,"[1]; BnaA01g04600D G1012R event 3, 10^-7M",75%
same,average phytotox value,"[1]; BnaA01g04600D G1012R event 3, 10^-8M",10%
same,average phytotox value,"[1]; BnaA01g04600D G1012R event 3, 10^-9M",0%
same,average phytotox value,"[2]; BnaA03g52020D G1015R event 1, 5*10^-8M",50%
same,average phytotox value,"[2]; BnaA03g52020D G1015R event 1, 10^-6M",85%
same,average phytotox value,"[2]; BnaA03g52020D G1015R event 1, 10^-7M",75%
same,average phytotox value,"[2]; BnaA03g52020D G1015R event 1, 10^-8M",0%
same,average phytotox value,"[2]; BnaA03g52020D G1015R event 1, 10^-9M",0%
same,average phytotox value,"[2]; BnaA03g52020D G1015R event 2, 5*10^-8M",60%
same,average phytotox value,"[2]; BnaA03g52020D G1015R event 2, 10^-6M",80%
same,average phytotox value,"[2]; BnaA03g52020D G1015R event 2, 10^-7M",75%
same,average phytotox value,"[2]; BnaA03g52020D G1015R event 2, 10^-8M",0%
same,average phytotox value,"[2]; BnaA03g52020D G1015R event 2, 10^-9M",0%
same,average phytotox value,"[2]; BnaA03g52020D G1015R event 3, 5*10^-8M",65%
same,average phytotox value,"[2]; BnaA03g52020D G1015R event 3, 10^-6M",80%
same,average phytotox value,"[2]; BnaA03g52020D G1015R event 3, 10^-7M",70%
same,average phytotox value,"[2]; BnaA03g52020D G1015R event 3, 10^-8M",0%
same,average phytotox value,"[2]; BnaA03g52020D G1015R event 3, 10^-9M",0%
same,average phytotox value,[3]; 5*10^-8M,75%
same,average phytotox value,[3]; 10^-6M,91%
same,average phytotox value,[3]; 10^-7M,80%
same,average phytotox value,[3]; 10^-8M,46%
same,average phytotox value,[3]; 10^-9M,4%
same,average phytotox value,[4]; 3.9 g/ha,7%
same,average phytotox value,[4]; 7.8 g/ha,6%
same,average phytotox value,[4]; 15.6 g/ha,15%
same,average phytotox value,[4]; 31.25 g/ha,29%
same,average phytotox value,[5]; 1.95 g/ha,26%
same,average phytotox value,[5]; 3.9 g/ha,18%
same,average phytotox value,[5]; 7.8 g/ha,0%
same,average phytotox value,[5]; 15.6 g/ha,16%
same,average phytotox value,[6]; 3.9 g/ha,26%
same,average phytotox value,[6]; 7.8 g/ha,21%
same,average phytotox value,[6]; 15.6 g/ha,52%
